According to PubChem BioAssay AID938 (National Center for Advancing Translational Sciences (NCATS), 2007):
The whole screen tested about 73,000 compounds, of which about 1,800 (2.5%) were called active. The inconclusive results got no clear call from the source; some entries with a clear call stand among them for comparison. Calls follow the shape of the dose curve; as a rule, active = well fitted activation curve with a large enough effect; inconclusive = small, poorly fitted or top-dose-only effect; inactive = no such curve, though single readings can be large or run the other way. Potencies of inconclusive entries are left out as doubtful fits.

assay: qHTS Assay for Agonists of the Thyroid Stimulating Hormone Receptor: Activators of Intracellular cAMP Concentrations in Parental HEK 293; conditions: parental HEK293 CNG cAMP sensor, membrane potential fluorescence; activation: at 57.1 µM (top of the series) unless noted; also: nearly all actives have a fitted effect of over 55% in size; as to activation: % of control where 0% means no effect
Excerpt: NIH Chemical Genomics Center [NCGC]
NIH Molecular Libraries Screening Centers Network [MLSCN]
PI Name: Dr. Marvin Gershengorn
This cell based assay utilized a cyclic nucleotide gated ion channel (CNG) as a biosensor for cAMP induction. HEK 293 cells stably expressing the modified CNG were purchased from BD biosciences (http://www.atto.com/products/actone/features_benefits.shtml) . Stimulation of cAMP production causes the CNG to open and subsequent membrane depolarization to occur. A fluorescent membrane potential dye (BD biosciences) was utilized to detect cAMP stimulation in cells.
The cells were maintained in DMEM medium (Invitrogen) containing 10 % FBS (Hyclone), 100 units/ml Penicillin, 100 ug/ml Streptomycin (Invitrogen), and 250 ug/ml Geneticin (Invitrogen) and 1 ug/ml Puromycin (Invitrogen) at 37C in 5% CO2. This assay was used as a counterscreen to "qHTS Assay for Agonists of the Thyroid Stimulating Hormone Receptor", to control for compounds signaling through endogenous receptors and other targets of HEK 293 cells.
NCGC Assay Protocol Summary:
High Throughput Screening. Freshly passaged cells were dispensed into 1536-well assay plates at 4 ul/well in DMEM containing phenol red (Invitrogen), 10% FCS (Hyclone), and 100 units/ml Penicillin, 100 ug/ml Streptomycin (Invitrogen) and incubated at 37 C with 5% CO2 for 20 to 36 hrs before the robotic screening. The screen was initiated by addition of 4 ul/well membrane potential dye containing 100 uM RO 20-1724 (Sigma Aldrich), followed by 60 min incubation at room temperature to allow for dye equilibration across the cell membrane. 23 nl/well compound or control was then added to the assay plates, which were incubated for additional 30 min before reading a Envision fluorescence plate reader (Perkin Elmer) in bottom-read mode for fluorescence intensity (emission at 590 nm).
Keywords: cAMP, CNG Ion Channel, quantitative high throughput screening, qHTS, HTS, probe identification, CNG, cAMP, cyclic nucleotide gated ion channel PubChem
Potency is read from the fitted curve at half-maximal effect; tags tell the direction and shape of the fitted curve.

Row | Compound | Potency | activation
1 | CCC(C)OC(=O)C1=C(C)NC(=O)CC1c1ccccc1OC (stereo not given) | inconclusive [activator, partial curve] | 
2 | CCc1nc(N2CCCCC2C)c2oc3ccccc3c2n1 (stereo not given) | active: 20 µM | 
3 | C=CCn1c(SCC(=O)N2CCCC2)nc2cc(C(=O)NCC3CCCO3)ccc2c1=O (stereo not given) | inconclusive [activator, single point] | 
4 | Cc1cc(Oc2ccccc2)nc(-c2ccccc2O)n1 | inconclusive [activator, single point] | 
5 | S=C(Nc1ccc2cn[nH]c2c1)Nc1ccc2cn[nH]c2c1 |  | inactive: -1.75% [at 11.4 µM]
6 | CC1CCN(C(c2ccc(N(C)C)cc2)c2nnnn2C(C)(C)C)CC1 (stereo not given) | inconclusive [activator, full curve, poor fit] | 
7 | CCOc1ccc(-c2[nH]nc3c2C(c2cccnc2)C(C#N)=C(N)O3)cc1 (stereo not given) | inconclusive [activator, single point] | 
8 | CCNC(=O)N1c2ccc(OCC)cc2C(C)=CC1(C)C | inconclusive [activator, single point] | 
9 | Cc1ccc(C2NC(=O)NC3=C2CCc2ccccc23)cc1 (stereo not given) | inactive | 
10 | Cc1ccc(S(=O)(=O)Nc2nc3ccccc3nc2NCc2ccco2)cc1 | inconclusive [activator, single point] | 
11 | CCCC(c1nnnn1Cc1cccs1)N1CCN(c2ccc(OC)cc2)CC1 (stereo not given) | inconclusive [activator, partial curve] | 
12 | O=C1CCCc2c1cc(C(=O)Nc1ccc(Cl)cn1)c(=O)n2-c1ccccc1 | inconclusive [activator, partial curve] | 
13 | Cc1onc(-c2c(Cl)cccc2Cl)c1C(=O)Nc1ccc2c(c1)OCO2 | inactive | 
14 | COc1ccccc1-n1c(CNC(=O)c2ccccc2)nnc1SCC(=O)Nc1nnc(C)s1 | inconclusive [activator, single point] | 
15 | COC(=O)c1[nH]c2cc(OC)ccc2c1NC(=O)CCN1CCN(c2cccc(C)c2C)CC1 | inconclusive [activator, single point] | 
16 | CC(C)C(NS(=O)(=O)c1ccc2c(c1)oc(=O)n2C)C(=O)N1CCN(Cc2ccccc2)CC1 (stereo not given) | inconclusive [activator, single point] | 
17 | COc1ccc(OC)c(NC(=O)c2cc3ccccc3o2)c1 | active: 31.6 µM | 
18 | COC(=O)c1cc(NCc2ccccc2F)ccc1N1CCOCC1 | inactive | 
19 | O=C(CSc1ncnc2c1oc1ccccc12)Nc1cccc(Cl)c1 | inconclusive [activator, partial curve] | 
20 | COc1ccc(C(=O)Cn2nnc(-c3ccccc3NC(=O)C3CC3)n2)cc1 | inconclusive [activator, partial curve, poor fit] | 
21 | CCOC(=O)N1CCC(NS(=O)(=O)c2ccc3c(c2)OCC(=O)N3)CC1 | inconclusive [activator, single point] | 
22 | CS(=O)(=O)N1CCN(C(=O)c2csc3ccccc23)CC1 | inactive | 
23 | COc1cccc(Cn2c(=O)cnc3cnc(OC)nc32)c1 | inconclusive [activator, full curve, poor fit] | 
24 | CCCCN(CCCC)C(=O)CSc1nnc(-c2cc(OC)c(OC)c(OC)c2)o1 | inconclusive [activator, single point] | 
25 | O=C(Nc1nnc(COc2ccc(Cl)cc2)s1)C1CCCO1 (stereo not given) | inactive | 

Row | Compound | Potency | activation
26 | Nc1nc(Nc2ccccc2)nc2ccccc12 | inactive | 
27 | CC(C)CC(c1nnnn1Cc1ccco1)N1CCN(C2CCCC2)CC1 (stereo not given) | active: 3.16 µM | 
28 | O=c1c2ccccc2nc(SCc2nnc(-c3ccccc3)o2)n1-c1ccccc1 | inconclusive [activator, partial curve] | 
29 | O=C(O)c1cc(-c2ccc3c(c2)OCO3)nc2ccccc12 | inactive | 
30 | CCCCn1nc(NC(=O)c2cccs2)c2cc3cc(OC)ccc3nc21 | inactive | 
31 | O=C(Nc1ccc(N2CCN(C(=O)c3ccccc3)CC2)c(Cl)c1)c1ccco1 | inactive | 
32 | Cc1cccc(-n2ncc3c(NCCCn4ccnc4)ncnc32)c1 | inconclusive [activator, full curve] | 
33 | O=C(CCN1CCC(c2ccccc2)C1)c1cccs1 (stereo not given) | inconclusive [activator, single point] | 
34 | CCCCc1oc2ccccc2c1C(=O)c1cc(I)c(OCCN(CC)CC)c(I)c1 | inconclusive [activator, single point] | 
35 | Cn1c(=O)c(-c2cc(F)cc(F)c2)nc2cncnc21 | inactive | 
36 | CCCCCCCNS(=O)(=O)c1cccc2c(Cl)cccc12 | inconclusive [activator, partial curve, poor fit] | 
37 | COc1ccc(C(c2nnnn2C2CCCC2)N2CCC(C)CC2)c(OC)c1 (stereo not given) | active: 15.8 µM | 
38 | Cc1ccc2c(Cl)cc(Cl)c(OCc3c(C)noc3C)c2n1 | active: 15.8 µM | 
39 | CN(C(=O)c1ccc2c(c1)OCO2)C1(C(=O)NC2CCCCC2)CCCCC1 | inconclusive [activator, partial curve] | 
40 | Clc1ccc(-c2nn3c(-c4ccccc4)nnc3s2)cc1 | inconclusive [activator, single point] | 
41 | Cc1ccc2[nH]c(C)c(CN(C)C3CCN(C)CC3)c(=O)c2c1 | inconclusive [activator, single point] | 
42 | CC(C)CCn1cnc2c(cnn2-c2ccc(F)cc2)c1=O | inconclusive [activator, single point] | 
43 | Cc1nnc(NC(=O)CCCCCN2C(=O)C3C4C=CC(C4)C3C2=O)s1 (stereo not given) | inconclusive [activator, single point] | 
44 | CCc1ccccc1N1CSC2=C(C#N)C(c3ccccc3F)CC(=O)N2C1 (stereo not given) | inactive | 
45 | O=C(CSc1nnc2ccccn12)c1ccc2c(c1)OCCO2 | inactive | 
46 | CCCCC/C=C\C/C=C\CCCCCCCC(=O)O | inconclusive [activator, partial curve, poor fit] | 
47 | COc1ccc(-c2cc(-c3ccc(OC)cc3)[nH]n2)cc1 | inactive | 
48 | COCCNC(=O)c1ccc(-n2c(=O)c(=O)[nH]c3ccccc32)cc1 | inactive | 
49 | CCOC(=O)c1cnn2c(C(F)F)cc(C3CC3)nc12 | inactive | 
50 | C=CCN(C(=O)CNC(=O)c1ccco1)C(C(=O)NC1CCCCC1)c1ccc(F)cc1 (stereo not given) | inconclusive [activator, partial curve] | 

Row | Compound | Potency | activation
51 | CCCOc1ccc(S(=O)(=O)NCCCN2CCOCC2)c2ccccc12 | inconclusive [activator, partial curve] | 
52 | COCCn1c(=O)c(-c2cccs2)nc2cnc(Oc3ccc(OC)cc3)nc21 | inactive | 
53 | COCCNc1nc2c(c(=O)n(C)c(=O)n2C)n1Cc1cccc(C)c1 | inactive | 
54 | FC(F)(F)c1ccccc1-c1nccc(NCc2ccccc2)n1 | inconclusive [activator, partial curve] | 
55 | O=C(Nc1ccncc1)c1cc2ccccc2o1 | inconclusive [activator, partial curve] | 
56 | COc1ccc(OC)c(-c2cc(C(=O)N3CCc4ccccc4C3)no2)c1 | inconclusive [activator, single point] | 
57 | CC1CCc2ccccc2N1C(=O)c1cccs1 (stereo not given) | inconclusive [activator, single point] | 
58 | Cc1c(Cl)cccc1NC(=O)CN1C(=O)CSc2ncccc21 | inactive | 
59 | Cc1ccc(C23CC4CC(CC(NC(=O)N5CCN(C)CC5)(C4)C2)C3)cc1 | inactive | 
60 | Cc1ccccc1-c1nnc(SCc2ccccc2F)o1 | inconclusive [activator, partial curve] | 
61 | Cc1cc(N2CCN(S(=O)(=O)c3ccc4c(c3)OCCO4)CC2)n2ncnc2n1 | inconclusive [activator, partial curve] | 
62 | CCCOc1ccc2ccccc2c1/C=N/n1cnnc1 | inconclusive [activator, single point] | 
63 | O=C(c1ccc2c(c1)OCO2)N1CCN(c2ccccc2)CC1 | active: 15.8 µM | 
64 | c1ccc2ccccc2c1 | inactive | 
65 | O=C1CCc2cc(S(=O)(=O)N3CCC(C(=O)NC4CCCC4)CC3)ccc2N1 | inactive | 
66 | CCOc1cc(C)c(Cl)cc1S(=O)(=O)N(C)C | inconclusive [activator, partial curve] | 
67 | CC(=O)NCCNc1ncncc1-c1ccccc1C | inconclusive [activator, single point] | 
68 | CCOc1ccc2nc3sc(C(=O)N4CCN(C)CC4)c(N)c3cc2c1 | inactive | 
69 | CCOC(=O)CN(C(=O)CNC(=O)c1ccco1)C(C(=O)NC1CCCC1)c1ccccc1OCC (stereo not given) | inconclusive [activator, full curve, poor fit] | 
70 | CCCC(c1nnnn1C(C)(C)CC)N1CCN(C2CCCC2)CC1 (stereo not given) | active: 1 µM | 
71 | COc1ccc(-c2csc(N(CCCN(C)C)C(=O)c3cccs3)n2)cc1 | inconclusive [activator, single point] | 
72 | CCOC(=O)C1CCCN(C(=O)c2cn(CC(C)C)c(=O)c3cc(OC)c(OC)cc23)C1 (stereo not given) | inconclusive [activator, single point] | 
73 | CC(=O)Oc1ccc2occ(C(=O)c3cccs3)c2c1 | active: 25.1 µM | 
74 | COc1ccc(C2C3=C(N=C4SCC(=O)N42)c2ccccc2CC3)cc1OC (stereo not given) | inactive | 
75 | O=C1c2ccccc2S(=O)(=O)N1CCOc1ccc(F)cc1 | inconclusive [activator, single point] | 
